# Results reported in the supplement of paper PMC3724861.
# The other results are listed elsewhere or left out.
# Tested on: T1, Caupolican (Caup) homeodomain DNA-binding domain
# T1 sequence: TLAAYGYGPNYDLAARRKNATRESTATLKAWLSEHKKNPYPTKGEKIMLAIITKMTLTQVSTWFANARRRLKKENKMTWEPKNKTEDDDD
# Experiment: PBM E-score (8-mer, recovered from the published 9-mer minima) (E-score (dimensionless, -0.5 to 0.5)); Drosophila protein; higher = stronger relative binding preference, active = 0.31 or more
# How it was run: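 An enrichment score, with higher meaning stronger, expresses relative binding preference for each short DNA word. The protein used was Caup's homeodomain DNA-binding domain (residues 214-303), produced by in vitro transcription and translation and tested at 100 nM on custom-designed protein binding microarrays. The 8-mer values were recovered from published 9-mer scores, each equal to the lower of its two constituent 8-mer scores.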
row,Sequence,PBM E-score
1,CAGGGGGA,inactive: -0.243
2,GAGTCTAC,inactive: -0.068
3,ATGTTGAC,active: 0.322
4,AAAGCTTC,inactive: -0.127
5,ATATCGAT,inactive: 0.154
6,CTATGCTA,inactive: 0.0866
7,TTAATGAA,inactive: 0.121
8,CTATCAAC,inactive: 0.14
9,GCTTCCCA,inactive: -0.17
10,GGACATCC,inactive: 0.163
11,CCAAAGGG,inactive: -0.202
12,ACAGCAGA,inactive: 0.067
13,CCTTGCGC,inactive: -0.226
14,CCTACACG,inactive: 0.18
15,ACGAAGAT,inactive: -0.0153
16,ACACTGTC,inactive: 0.157
17,CGCATAGC,inactive: -0.137
18,ACATCTTA,inactive: 0.207
19,ACTCGTCT,inactive: 0.065
20,AATTTCAC,inactive: 0.0568
21,AAGCACTC,inactive: -0.0449
22,GCGGAGCA,inactive: -0.216
23,AAGGTCAG,inactive: -0.055
24,AGTCCGCG,inactive: -0.0778
25,GAGTGAGC,inactive: -0.0932
26,CTATTGGC,inactive: -0.0415
27,CGAGGGAA,inactive: -0.108
28,GGGAACAA,inactive: 0.211
29,CCAACTCC,inactive: -0.113
